From the supplement of paper PMC9135407
Several values for one entry are separate records, joined by “and”; a condition that tells them apart may be missing. Identical values can stand only once. Counter-ions that a name gives are not always drawn. Out of some 5,800 compounds screened, about 620 (11%) showed activity.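 How the source made its calls: active = score above a cut-off or among the top three wells of a plate; in these data no inactive exceeds 0.85.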 The entries are a selection whose mix differs from that of the whole data set.

System: primary human hepatic stellate cells (donor 1)
Assay: scaled lipid accumulation score (0 = DMSO-like, 1 = nortriptyline-like); higher = stronger HSC inactivation (lipid re-accumulation), active = hit call of the paper
Conditions: 48 h
[1] = library stock concentration: 3.33 mM
[2] = library stock concentration: 10 mM

## NCC(=O)O.[C-]#[O+].[C-]#[O+].[C-]#[O+].[Cl][Ru]
[1]
  scaled lipid accumulation score: inactive: ≤ -0.009
[2]
  scaled lipid accumulation score: inactive: ≤ 0

## Cc1cc(C(=O)CN2CCCC2)c(C)n1-c1ccc(F)cc1
[1]
  scaled lipid accumulation score: inactive: ≤ -0.009
[2]
  scaled lipid accumulation score: inactive: 0.244

## Cc1cccc([C@H](C)c2c[nH]cn2)c1C [Dexmedetomidine]
[1]
  scaled lipid accumulation score: inactive: 0.005
[2]
  scaled lipid accumulation score: inactive: 0.007

## CC1(C(=O)O)C2CCC(O2)C1(C)C(=O)O (configuration not stated) [Cantharidic Acid]
[2]
  scaled lipid accumulation score: inactive: ≤ 0

## CCCN(CCC)[C@@H]1CCc2c(OC)cccc2[C@@H]1C [(+)-UH 232 maleate]
[2]
  scaled lipid accumulation score: inactive: 0.107

## CC(C)(C)NCC(O)c1ccccc1Cl (configuration not stated) [Tulobuterol hydrochloride]
[2]
  scaled lipid accumulation score: inactive: 0.09

## CC(C)(C)NCC(O)c1ccccc1Cl (configuration not stated) [Tulobuterol]
Library stock concentration: 8.8 mM
  scaled lipid accumulation score: inactive: ≤ 0
[2]
  scaled lipid accumulation score: inactive: ≤ -0.027

## CCC(C)(C)O
[2]
  scaled lipid accumulation score: inactive: ≤ 0

## CN(C)C(=S)SSC(=S)N(C)C [Thiram]
[2]
  scaled lipid accumulation score: inactive: 0.163

## CO[C@]12C[C@@H](COC(=O)c3cncc(Br)c3)CN(C)[C@@H]1Cc1cn(C)c3cccc2c13 [Nicergoline]
  scaled lipid accumulation score: inactive: ≤ 0
[2]
  scaled lipid accumulation score: inactive: 0.682 and inactive: 0.399

## CC(=O)OCC1=C(C(=O)O)N2C(=O)[C@@H](N)[C@H]2SC1 [Cephalosporanic acid, 7-amino]
  scaled lipid accumulation score: inactive: ≤ 0

## C[C@H]1C(=O)O[C@@H]2CCN3CC=C(COC(=O)[C@](C)(O)[C@]1(C)O)[C@H]23 [Monocrotaline]
  scaled lipid accumulation score: inactive: 0.056
[2]
  scaled lipid accumulation score: inactive: ≤ 0

## CCCN(CCC)[C@@H]1CCc2cccc(O)c2C1 [R-(+)-8-Hydroxy-DPAT hydrobromide]
[2]
  scaled lipid accumulation score: inactive: ≤ -0.07

## C#CCN[C@H](C)Cc1ccccc1 [R-(-)-Desmethyldeprenyl hydrochloride]
[2]
  scaled lipid accumulation score: inactive: ≤ 0

## C[C@@]12N[C@@H](Cc3ccccc31)c1ccccc12 [(-)-MK 801 maleate]
[2]
  scaled lipid accumulation score: inactive: 0.167

## C[C@@]12N[C@@H](Cc3ccccc31)c1ccccc12 [(-)-MK 801 Maleate]
[1]
  scaled lipid accumulation score: inactive: 0.03
[2]
  scaled lipid accumulation score: inactive: 0.196

## C[C@@]12N[C@@H](Cc3ccccc31)c1ccccc12 [(-)-MK-801 hydrogen maleate]
[2]
  scaled lipid accumulation score: inactive: 0.313

## C[C@@]12N[C@@H](Cc3ccccc31)c1ccccc12 [(-)-MK 801 hydrogen maleate]
  scaled lipid accumulation score: inactive: ≤ 0

## CC(CC(C(N)=O)(c1ccccc1)c1ccccc1)N(C)C (configuration not stated) [Aminopentamide]
Library stock concentration: 5.1 mM
  scaled lipid accumulation score: inactive: 0.04

## CCCN1CCc2cc(O)cc3c2[C@H]1Cc1ccc(O)c(O)c1-3 [R(-)-2,10,11-Trihydroxy-N-propylnoraporphine hydrobromide]
[2]
  scaled lipid accumulation score: inactive: ≤ -0.07
